About 2,200 (0.71%) of roughly 310,000 compounds showed an effect of 50% or more. Effects have a minus sign here. The list shows a part of the results. Where a SMILES comes first, the peptide text is derived from it. The star is where a group is joined. Boc = CC(C)(C)OC(=O)*; Bn = c1ccc(C*)cc1
biological target: human ether-à-go-go-related gene (hERG) potassium channel (human, UniProt Q12809); assay: primary screen, population patch clamp on CHO cells stably expressing hERG
Sequence (Q12809 whole entry, looked up): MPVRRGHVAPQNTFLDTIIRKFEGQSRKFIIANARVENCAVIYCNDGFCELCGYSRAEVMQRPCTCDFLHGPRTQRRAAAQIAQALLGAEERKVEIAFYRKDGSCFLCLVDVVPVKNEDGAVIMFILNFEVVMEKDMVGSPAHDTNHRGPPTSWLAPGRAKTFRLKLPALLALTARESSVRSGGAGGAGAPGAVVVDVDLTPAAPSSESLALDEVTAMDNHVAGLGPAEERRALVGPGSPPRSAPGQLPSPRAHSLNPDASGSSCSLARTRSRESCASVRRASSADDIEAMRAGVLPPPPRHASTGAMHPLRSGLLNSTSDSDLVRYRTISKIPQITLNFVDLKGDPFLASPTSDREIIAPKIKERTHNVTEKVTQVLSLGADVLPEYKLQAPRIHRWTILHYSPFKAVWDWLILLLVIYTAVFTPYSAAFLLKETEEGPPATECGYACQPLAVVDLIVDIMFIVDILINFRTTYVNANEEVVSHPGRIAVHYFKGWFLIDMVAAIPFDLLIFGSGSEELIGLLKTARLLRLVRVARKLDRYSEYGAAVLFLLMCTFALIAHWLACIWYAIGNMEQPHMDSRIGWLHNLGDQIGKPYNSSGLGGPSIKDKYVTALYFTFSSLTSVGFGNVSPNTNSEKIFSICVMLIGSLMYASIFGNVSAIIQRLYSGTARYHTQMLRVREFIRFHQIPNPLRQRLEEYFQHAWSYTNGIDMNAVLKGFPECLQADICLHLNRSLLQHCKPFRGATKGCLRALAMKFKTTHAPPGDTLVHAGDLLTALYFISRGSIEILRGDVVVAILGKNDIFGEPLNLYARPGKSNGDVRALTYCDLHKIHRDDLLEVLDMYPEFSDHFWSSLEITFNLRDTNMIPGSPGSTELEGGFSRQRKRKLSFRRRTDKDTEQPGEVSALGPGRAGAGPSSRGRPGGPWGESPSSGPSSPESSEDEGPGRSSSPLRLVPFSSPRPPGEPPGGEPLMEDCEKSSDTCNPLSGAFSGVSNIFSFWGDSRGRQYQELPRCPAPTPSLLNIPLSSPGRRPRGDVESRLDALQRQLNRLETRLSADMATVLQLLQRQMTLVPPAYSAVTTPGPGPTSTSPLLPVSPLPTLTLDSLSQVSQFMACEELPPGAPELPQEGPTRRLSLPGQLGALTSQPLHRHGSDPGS

SMILES	hERG current change (%, negative = inhibition) at 1uM [%]
CCOc1ccc(NC(=O)CSc2nnc(CNC(=O)c3ccco3)o2)cc1	-0.25
COc1ccccc1CNc1nc2nc(C)c(C)c(=O)n2[nH]1	8.46
CC(=O)NC1C(OCc2ccccc2)OC2COC(c3ccccc3)OC2C1OCC(=O)O (centres unmarked)	19
COc1cc2c3c(c1OC)-c1cc(O)ccc1CC3NCC2.Cl (centres unmarked)	-13.7
N#CCCn1c(C(C#N)(CCC#N)CCC#N)nc2ccccc21	15.9
COCCCNC(=O)C1CCCCN1S(=O)(=O)c1ccc(F)cc1 (centres unmarked)	11
Cc1cc(=O)n2nc(N3CCC(C(=O)NCCc4ccc(Cl)cc4)CC3)sc2n1	0.822
Cc1ccc(C(=O)c2nc(C(=O)NCCO)nc3ccccc23)cc1	16.5
CC1Cc2ccccc2N1S(=O)(=O)c1cccc2nsnc12 (centres unmarked)	6.02
COCCn1cnc2c1c(=O)n(CC(=O)NCC(F)(F)F)c(=O)n2Cc1ccccc1	14.4
Cc1nc(SCC(=O)Nc2cc(C)on2)c2c(=O)n(C)c(=O)n(C)c2n1	13.2
CN1CCN(c2ccccc2NC(=O)c2c(F)cccc2F)CC1	2.83
COc1ccc(/C=C/C(=O)Nc2sc3c(c2C(=O)NCc2cccnc2)CCCC3)cc1	7.55
Cn1c(CC(=O)Nc2ccc(F)cc2)c(Sc2ccccc2)c2ccccc21	8.32
COc1ccc(NS(=O)(=O)c2ccc(C)c(C(=O)NNC(=O)c3csc(N4CCOCC4)n3)c2)cc1	6.79
Cc1ccc(C(=O)Nc2ccc3c(c2)C(=O)NC3=O)cc1	18.8
CC(C)C[C@H](NC(=O)N1CCn2c1nc1ccccc12)C(=O)NCC1CCCO1 (some centres unmarked)	16.8
Cc1ccc(C)c2nc(Cl)c(C#N)cc12	13
O=[N+]([O-])c1cc(S(=O)(=O)NCCN2CCOCC2)ccc1Cl	16.2
COc1ccc(NC(=O)Nc2cccc(OC)c2)cc1	-2.63
Cc1ccc(/C=N/n2c(COc3ccccc3)n[nH]c2=S)s1	11.3
COc1ccc(C)cc1Nc1n[n+](-c2ccccc2)c(-c2c(Cl)cccc2Cl)s1.[Cl-]	-4.42
O=C(COc1ccccc1)NCCSCc1ccc(Cl)cc1	8.48

SMILES	hERG current change (%, negative = inhibition) at 1uM [%]
COC(=O)c1ccc(CN(C(C)=O)c2ccccc2)o1	13.6
Cc1ccc(C(C(=O)NCCc2ccccc2)N(C(=O)c2csnn2)C2CC2)cc1 (centres unmarked)	7.1
CCOC(=O)C(Cc1ccccc1)NC(=O)CCc1nnc2ccc(N3CCCCC3)nn12 (centres unmarked)	15.5
CCOC(=O)c1ccc(CC2S/C(=C(\C#N)C(C)=O)NC2=O)cc1 (centres unmarked)	1.89
COc1cc(C2c3c(-c4cc(Cl)c(C)cc4O)n[nH]c3C(=O)N2Cc2cccnc2)ccc1O (centres unmarked)	8.71
CCCNc1nc2c(c(=O)[nH]c(=O)n2C)n1CCCc1ccccc1	12.9
COC(=O)c1ccc(COC(=O)c2ccc(SC)cc2OC)cc1	10.4
COc1ccccc1-c1ccc(=O)n(CC(=O)NCC2CCCO2)n1.Cl (centres unmarked)	2.84
O=C(Cc1c(F)c(F)c(F)c(F)c1F)OC12CC3CC(C1)C(=O)C(C3)C2	6.32
CCc1cc2c(Nc3ccccc3O)nc(C)nc2s1.Cl	17.2
c1ccc2c(c1)NC(CN1CCOCC1)CO2 (centres unmarked)	3.87
CS(=O)(=O)Oc1ccc(/C=C2\C(=N)N3N=C(CC(=O)N4CCOCC4)SC3=NC2=O)cc1Cl	9.94
OC(CN1CCN(c2cccc(Cl)c2)CC1)c1ccc(F)cc1 (centres unmarked)	-0.326
CCOC(=O)COc1ccc(C(c2c(C)[nH][nH]c2=O)c2c(C)[nH][nH]c2=O)cc1	12.5
Cc1ccc2nc(SCC3CCCCO3)[nH]c2c1 (centres unmarked)	-0.485
Clc1cc(CSc2ccccc2)nc(-c2ccccc2)n1	2.47
CCC(=O)n1nc(-c2cccnc2)nc1NCc1ccc(OC)cc1	7.01
CCOC(=O)C1=C(COc2ccc(F)cc2Cl)NC(=O)NC1c1cc(C)ccc1C (centres unmarked)	11.4
NC(=O)COC(=O)CSc1cccc2cccc(Cl)c12	16.6
Oc1cc(Cc2ccccc2)cnc1CN1CCCCC1	10.2
CC(=O)Nc1nnc(-c2ccccn2)o1	11.7
Clc1ccc(CSc2ccc(-c3ccccn3)nn2)cc1	-3.52
CN(CC(=O)NC(=O)NC1CCCCC1)c1ccccc1	11.7

SMILES	hERG current change (%, negative = inhibition) at 1uM [%]
O=C(CSc1nnc(NC(=O)c2ccccc2F)s1)NCc1ccco1	15.4
COc1ccc(NC(=S)N2CCC(NC(=O)c3ccco3)CC2)cc1	14.2
COCCn1c(C)cc(C(=O)CSc2nnc3ccccn23)c1C	8.95
O=C(Nc1ccccc1)c1ccc[nH]1	12.8
O=C(NCCc1ccccc1)c1cc(S(=O)(=O)N2CCOCC2)ccc1F	7.31
COc1cc(C(=O)NCCOc2ccc(F)cc2)c(Br)c(OC)c1OC	3.73
CC(Oc1ccccc1)c1ccnc2nc(/N=C/N(C)C)nn12 (centres unmarked)	14
COC(=O)c1ccc2[nH]ccc2c1	1.03
CCOC(=O)C1CCCN(C(=O)COc2ccc(N(C)S(=O)(=O)c3ccc(C)cc3)cc2)C1 (centres unmarked)	0.084
COc1ccccc1NC(=S)N1C2CCC1CC(NC(=O)NC13CC4CC(CC(C4)C1)C3)C2 (centres unmarked)	-25.2
Cc1cccc(Oc2ccc(NC(=O)c3ccccc3C(=O)O)cc2)c1	6.74
COc1cc2[nH]c(=O)n(Cc3ccc(C(=O)NCCCN4CCC(C)CC4)cc3)c(=O)c2cc1OC	5
S=C(NCCc1ccccn1)NC1CC2CCC1C2 (centres unmarked)	14.1
O=C1CCCCC1c1cccc2ccccc12 (centres unmarked)	4.46
CCC(C(=O)Nc1nccs1)c1ccccc1 (centres unmarked)	15.2
CCOCCCNC(=O)c1cc(-c2ccc(Br)s2)nc2ccccc12	9.96
Cc1ccc[n+](CC(O)Cn2c3ccccc3c3ccccc32)c1.[O-][Cl+3]([O-])([O-])[O-] (centres unmarked)	10.8
Cn1c(CC(=O)c2ccc(Br)cc2)[n+](C)c2ccccc21.[Cl-]	5.8
O=C(Cc1cc(=O)[nH][nH]1)N/N=C/c1ccccc1Cl	11.3
COc1ccccc1S(=O)(=O)Cc1ccc(C(=O)NCc2cccs2)o1	-15.6
Cc1cccc(NC(=O)COC(=O)CCc2c[nH]c3ccccc23)c1C	-3.73
CN(C)CCCNC(=O)c1ccc(Cl)c(S(=O)(=O)N2CCCCCC2)c1.Cl	-70
COc1ccc(-n2cnnc2SCC(=O)Nc2ccc(C(N)=O)cc2)cc1	12.2

SMILES	hERG current change (%, negative = inhibition) at 1uM [%]
Cc1cc(C)cc(N(CC(=O)NC(C)(C)C)C(=O)CCC(=O)Nc2ccccn2)c1	7.93
O=C(Cn1c(C(=O)OCCO)cc2ccccc21)c1ccccc1	12.3
CCOc1cc(C2C3=C(CC(C)(C)CC3=O)N(CCOC)C3=C2C(=O)CC(C)(C)C3)ccc1OC	6.13
O=C(O)CN1C(=O)c2ccc(C(=O)c3ccccc3)cc2C1=O	10.9
CC1CCCc2sc3nc(NCc4ccco4)n4ncnc4c3c21 (centres unmarked)	11.6
CCCCn1c(=O)[nH]c(=O)c2c1nc(CN(C)Cc1cccc(OC)c1OC)n2CCC.O=C(O)C(=O)O	11.6
CC1=NN(c2ccc(Br)cc2)C(=O)/C1=C/c1ccc(-c2ccccc2C(=O)O)o1	14
CC(C)CC(NC(=O)C(NC(=O)C(Cc1ccc(OCc2ccccc2)cc1)NC(=O)OC(C)(C)C)C(C)C)C(N)=O (stereo not drawn) (Boc-Tyr(Bn)-Val-Leu-NH2; configuration not given here)	4.92
CCOC(=O)c1ccc(NC(=O)NCCN2CCCCC2)cc1	-10.5
N[C@@H](Cc1ccccc1)c1nnc2sc(SCc3ccccc3)nn12	-2.28
COc1cc(/C=C(\CC(=O)O)c2nc3ccccc3s2)cc(OC)c1O	9.4
CCCCNC(=O)NCCN1CCOCC1	26.8
C=CCNC(=O)CN(c1cccc(Br)c1)S(C)(=O)=O	-6.39
C=CCOc1ccc(/C=C/C(=O)OCC(=O)N(C)CC(=O)Nc2ccccc2Cl)cc1	7.77
O=C(NCCC(=O)N1CCN(C(=O)c2ccco2)CC1)c1ccc(Br)cc1	7.57
Cc1ccc2c(c1)NC(=O)C(CC(=O)O)O2 (centres unmarked)	13
COc1ccccc1NC(=O)C1=C(C)NC(=O)NC1c1ccc(C)s1 (centres unmarked)	12.8
COc1ccc(Cl)cc1S(=O)(=O)Nc1ccc(Cl)cn1	12.6
CN1CCN(c2nc3c(c(=O)n(C)c(=O)n3C)n2CC(N)=O)CC1	-2.4
CCN(CC)S(=O)(=O)c1ccc(N2CCOCC2)c(NC(=O)CC2OC(=O)c3ccccc32)c1 (centres unmarked)	5.89
